From PubChem BioAssay AID1346428 (National Center for Advancing Translational Sciences (NCATS), 2018)
Several values for one entry are separate records, joined by “and”; a condition that tells them apart may be missing. Identical values can stand only once. Out of some 48,000 compounds screened, about 1,200 (2.5%) were called active. Inconclusive results (about 2%) are left out.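 The calls were made as follows: active = activation of at least 60% and not above a set upper limit (about 1 call in 100 departs from these limits); inconclusive = activation of 40% to 60%, or above that upper limit; inactive = activation under 40%.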 Some of the results follow.

Molecular target: Probable G-protein coupled receptor 32 (Homo sapiens) (UniProt O75388)
Assay: qHTS for Agonists of Human Resolvin D1 Receptor DRV1; also: 0% is about no effect
Conditions: CHO-K1 GPR32 beta-arrestin PathHunter luminescence, 90 min; at 76.9 µM; hits give high values; zero percent set by DMSO-only wells
Summary of the method: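 PathHunter enzyme-fragment complementation, CHO-K1 GPR32 stable line; 2,500 cells/well, overnight attach; cpd 90 min 37 °C 5% CO2; detection reagent 1 h RT; chemiluminescence. DMSO = EC0.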

Sequence of UniProt O75388 (O75388 whole entry, looked up): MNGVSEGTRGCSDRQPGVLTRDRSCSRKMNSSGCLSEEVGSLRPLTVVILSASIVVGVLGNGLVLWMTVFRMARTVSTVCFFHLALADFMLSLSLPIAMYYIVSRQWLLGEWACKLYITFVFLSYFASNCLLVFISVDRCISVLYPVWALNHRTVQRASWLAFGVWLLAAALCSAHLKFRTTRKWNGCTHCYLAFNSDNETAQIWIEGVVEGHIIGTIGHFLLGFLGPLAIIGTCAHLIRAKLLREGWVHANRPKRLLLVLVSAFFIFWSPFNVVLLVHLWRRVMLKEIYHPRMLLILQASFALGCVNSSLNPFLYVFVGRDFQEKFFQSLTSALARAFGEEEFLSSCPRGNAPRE

SMILES | activation
CCc1ccc(NC(=O)C(C)n2nnc3sc(-c4ccccc4)cc3c2=O)cc1 (centres undefined) | inactive: -5.89%
COc1ccc(NC(=O)/C(C#N)=C/c2cc(C)n(-c3ccc(F)cc3)c2C)cc1 | inactive: 7.48%
CCOC(=O)c1cccc(NC(=O)C2CCCN(S(=O)(=O)c3ccc4c(c3)oc(=O)n4C)C2)c1 (centres undefined) | inactive: -8.38%
Cc1ccc(-n2c(=O)c3c4c(sc3n(Cc3cccc(Cl)c3)c2=O)CCC4)cc1C | inactive: 23.1%
Cc1nc2nncn2c(NCc2ccc(Cl)cc2)c1C | active: 76.3%
CC(C)C(=O)N(Cc1ccccc1)S(=O)(=O)c1ccc2c(c1)oc(=O)n2C | inactive: 7.38%
Cc1csc2nc(COC(=O)c3ccccc3NC(=O)COc3ccccc3F)cc(=O)n12 | inactive: 0.667%
Cc1ccc(Cl)cc1NC(=O)Cn1c(=O)n(CCCS(=O)(=O)C2CCCCC2)c(=O)c2ccccc21 | inactive: -15%
Cc1nc2nc(SCC(=O)O)nn2c(C)c1Cc1c(F)cccc1Cl | inactive: -13%
Cc1ccc(CN(C(=O)COc2ccc(Cl)c(C)c2)C2CCS(=O)(=O)C2)o1 (centres undefined) | inactive: -24.5%
Cc1cccc2sc(N(CCCN(C)C)C(=O)c3ccc(Cl)s3)nc12 | inactive: 48.6%
Cc1ccc(Nc2nc3c(S(=O)(=O)c4ccccc4)nnn3c3ccsc23)c(C)c1 | inactive: -1.1%
Cc1sc2ncn(CC(=O)N3CCN(c4ccc(F)cc4)CC3)c(=O)c2c1S(=O)(=O)N1CCCCC1 | inactive: -8.33%
Cc1ccc(S(=O)(=O)c2cn(CC(=O)Nc3ccc4c(c3)OCO4)c3ccccc3c2=O)cc1 | inactive: -5.08%
COc1cccc(NC(=O)CSc2nc(=O)n(Cc3ccco3)c3c2CCC3)c1 | inactive: -54.4%
Cc1cccc(NC(=O)Cn2nnc(C(=O)Nc3ccc(F)c(Cl)c3)c2N)c1 | inactive: -8.45%
COc1cc(C2C(C(=O)OCC(C)C)=C(C)N=C3SCCC(=O)N32)ccc1OCc1ccccc1 (centres undefined) | inactive: -6.11%
CCN(CC)CCCNC(=O)CSc1c2c(nc3cc(Cl)ccc13)CCCC2 | inactive: -14.6%
Cc1cc(C)c2nc(N(Cc3cccnc3)C(=O)c3ccc(S(=O)(=O)N(C)C)cc3)sc2c1 | inactive: 3.93%
CC1=C(C(=O)Nc2ccc(C)cc2C)C(C(C)C)n2nc(SCc3ccccc3Cl)nc2N1 (centres undefined) | inactive: -0.891%
Cn1c(C(=O)NCc2ccccc2F)cc2oc3ccccc3c21 | inactive: 5.07%
CCN1CCN(c2cc3c(cc2F)c(=O)c(S(=O)(=O)c2ccc(OC)cc2)cn3CC)CC1 | inactive: -6.85%
COc1cccc2sc(N(Cc3cccnc3)C(=O)Cc3ccccc3)nc12 | inactive: -26.3%
O=C(c1ccco1)n1nc(-c2ccccc2)nc1NCc1ccc(F)cc1 | inactive: 20.2%
Cc1c(C(=O)Nc2cccc(C(F)(F)F)c2)sc2nc3n(c(=O)c12)CCCC3 | inactive: 26.4%
CCCCNC(=O)c1ccc2c(c1)NC(=O)C(CS(=O)(=O)Cc1cccc(C)c1)N2 (centres undefined) | inactive: -15%
COc1ccc2oc(-c3cccc(NC(=O)c4ccc(C#N)cc4F)c3)nc2c1 | inactive: 2.91%

SMILES | activation
CCCCNc1ncnc2c1nnn2C | inactive: -7.44%
CCN1CCN(c2oc(-c3ccc(COc4ccc(C)cc4)o3)nc2C#N)CC1 | inactive: -18.4%
CC(C)Cn1c(=O)c2sccc2n2c(CCCC(=O)NCCc3ccccc3)nnc12 | inactive: -2.32%
COc1cccc(C(=O)NCC(=O)OCc2cc(=O)n3c(C)csc3n2)c1 | inactive: 1.5%
COc1ccc(C2CC(=O)N(Cc3ccc(F)cc3)c3ccccc3S2)cc1 (centres undefined) | inactive: 14.6%
Cc1ccc(S(=O)(=O)N2CCN(Cc3noc(CCC(=O)N4CCCCC4)n3)CC2)c(C)c1 | inactive: -10.1%
COc1cccc(NC(=O)Cn2c(=O)n(-c3ccc(Cl)cc3)c(=O)c3oc4ccccc4c32)c1 | inactive: -6.5%
COc1cc(C(=O)Nc2ccc3[nH]c(=O)sc3c2)cc(OC)c1OC | inactive: 2.62%
CC(C)C(=O)N1c2ncnn2C2(CCCCC2)[C@@H]2CCCC[C@@H]21 | inactive: -5.15%
CC1=C(C(=O)Nc2cccnc2)C(c2cccc(F)c2)n2nc(SCc3ccccc3)nc2N1 (centres undefined) | inactive: 19.3%
C[C@H](NC(=O)OC(C)(C)C)c1nnc(SCc2c(F)cccc2Cl)o1 | inactive: 20.1%
O=C(O)CP(=O)(O)O | inactive: 4.82% and inactive: 6.59%
Cc1ccc(-c2nc3c4ccccc4[nH]c(=O)n3n2)cc1 | inactive: 10.5%
CCc1nc2ccc(C(=O)N3CCN(c4cccc(C)c4C)CC3)cc2nc1CC | inactive: -23.9%
COCCCNC(=O)c1cc2c(=O)oc3ccc(C)cc3c2s1 | inactive: -7.49%
O=C(c1ccc(CSc2nc3ccncc3n2Cc2ccc(F)cc2)cc1)N1CCCCCC1 | active: 61.4%
O=C1CC(c2cccc(O)c2)c2c(nc(SCc3ccccc3F)[nH]c2=O)N1 (centres undefined) | inactive: 2.55%
CCOc1ccc(C(=O)N(Cc2sccc2C)C2CCS(=O)(=O)C2)cc1 (centres undefined) | inactive: -15.6%
CCOc1ccc(-c2cc(OC(=O)c3ccc(OC)cc3)c3c(C)oc(C)c3c(=O)c2)cc1 | inactive: -1.42%
CCOc1ccccc1CNC(=O)c1cc2n(n1)CCCN(Cc1ccc(C)cc1)C2=O | inactive: -16.7%
CCc1ccccc1NC(=O)Nc1ccc2c(c1)N(CC)C(=O)c1ccccc1S2 | inactive: -7.06%
CCOc1ccc(NC(=O)CSc2nc(C)c(C(=O)Nc3ccccc3)c(-c3ccc(Cl)cc3)c2C#N)cc1 | inactive: 8.3%
CCc1cccc(-n2c(C)nc3c(cnn3-c3ccc(C)c(C)c3)c2=O)c1 | inactive: 1.7%
COc1cc(OC)c(NC2(c3ccccc3)C(=O)c3ccccc3C2=O)cc1Cl | inactive: -52%
CC(=O)Nc1ccc(S(=O)(=O)Nc2cc(C)on2)cc1 | inactive: -13.1%
COc1cccc(NC(=O)CSc2nc3cc(OC)c(OC)cc3c3nc(-c4ccccc4)nn23)c1 | inactive: 1.2%
CCn1c2ccccc2c2cc(CN3CCN(Cc4ccccc4Cl)CC3)ccc21 | inactive: -31.8%
